Measured values published in PubChem BioAssay AID759 (NMMLSC, 2007).
The campaign covered roughly 190,000 compounds. About 270 (0.14%) were called active. The inconclusive results got no clear call from the source; some entries with a clear call stand among them for comparison.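 Rule for the calls: active = GTP binding activity at least 20% away from the 100% baseline, either lowered as inhibitor or raised as activator; inconclusive = flagged as likely green fluorescent, judged across all proteins in the well; inactive = the rest.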

target: GTPase HRas (Homo sapiens) (UniProt P01112); assay: HRas wt fluorescent GTP binding changes, either direction – biochemical, wildtype, bead-based flow cytometry, multiplex, primary screen (AID 759); conditions: GST-Ras wt beads, Bodipy-FL-GTP binding, at 10 µM, actives lie on both sides;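 note: 0% = unlabeled GTP competition control and 100% = no-compound control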
Sequence of UniProt P01112 (P01112 whole entry, looked up): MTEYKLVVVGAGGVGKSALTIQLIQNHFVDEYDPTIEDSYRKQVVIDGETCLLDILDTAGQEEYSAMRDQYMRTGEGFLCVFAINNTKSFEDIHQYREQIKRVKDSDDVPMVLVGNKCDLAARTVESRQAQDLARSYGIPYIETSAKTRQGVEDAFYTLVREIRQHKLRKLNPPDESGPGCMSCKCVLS

GTP binding activity, active:
COc1cccc2c(SCC(=O)N/N=C/c3ccc(O)cc3O)cc(C)nc12 72%

GTP binding activity, inactive:
CCOC(=O)c1cc([N+](=O)[O-])c([N+](=O)[O-])cc1NC(C)=O 93%
CCCN1CNC(=S)N(c2ccccc2C)C1 103%
Cc1nc(C(F)(F)F)c(C(=O)N/N=C(\N)c2ccccn2)s1 98%
COc1ccc(CC(=O)NNC(=O)c2ccc(NC(C)=O)cc2)cc1 93%
CCOC(=O)N1CCc2c(sc3c2c(=O)n(Cc2ccccc2)c(=O)n3Cc2cccc(C)c2)C1 96%
Cc1cccc(NC(=O)CN2C(=O)N/C(=C/c3ccc(-c4cccc(C(=O)O)c4C)o3)C2=O)c1 91%
OCCSc1nc(N2CCOCC2)nc(N2CCOCC2)n1 96%
O=C(NCCN1CCN(c2cccc(Cl)c2)CC1)c1ccc(CSc2nc3ccncc3[nH]2)cc1 97%
COCCNC(=O)C1CC(=O)N(c2ccc(OC)cc2)C1c1ccc(OC)cc1 (stereo not given) 97%

GTP binding activity, inconclusive:
CC(=O)c1cccc(NC(=S)NNC(=O)c2ccco2)c1 89%
CC1=CCC(Cc2nc3ccccc3o2)C1(C)C (stereo not given) 95%
S=C(NCCCn1ccnc1)Nc1ccc(Cl)cc1Cl 92%
CCCCN(CCCC)c1nc2ccccc2nc1C(C#N)C(=O)NCCCOC (stereo not given) 112%
Cc1occc1-c1nnc(SCC(=O)Nc2nc(-c3ccccc3)cs2)o1 103%
CCOC(=O)c1c(C)[nH]c(C(=O)/C(C#N)=C/c2ccc(OC(F)F)c(OC)c2)c1C 109%
Cc1cccc(S(=O)(=O)c2c(N)n(/N=C/c3cccnc3)c3nc4ccccc4nc23)c1 69%
COCC(C)N1CC(O)=C(c2nc(-c3ccc(Cl)cc3)cs2)C1=N (stereo not given) 96%
N=C1S/C(=C\c2ccco2)C(=O)N1c1ccc2c(c1)OCO2 92%
Cc1ccc(C2=CSC3=NS(=O)(=O)CCN23)cc1 93%
Cc1ccnc(SCC(=O)n2c3c(c4ccccc42)CC(C)CC3)n1 (stereo not given) 103%
O=[N+]([O-])c1ccccc1OCc1nc(-c2cccs2)no1 93%
C=CCN(C(=O)c1cccc(C(F)(F)F)c1)C1(C(=O)Nc2ccccc2)CCN(C(C)C)CC1 96%
O=C(COC(=O)c1cncc(Br)c1)NCc1ccco1 106%
CC(C)n1c(O)c(N=NC(=O)c2ccccc2NS(=O)(=O)c2cccs2)c2ccccc21 87%
